# From the supplement of paper PMC8728848
# The other results are listed elsewhere or left out.
# Tests used:
# Experiment in all cases: glycan array binding signal (z-score within array); higher = stronger binding
# Settings in all cases: glycan notation: IUPAC condensed, linker removed
# [1] = target: Neu5Ac(a2-3)Gal(b1-3)[Fuc(a1-4)]GlcNAc(b1-3)Gal(b1-4)[Fuc(a1-3)]GlcNAc
# Outline: (§1)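 The Consortium for Functional Glycomics database supplied 3228 glycan arrays, of which those lacking an available protein sequence were dropped. The binding signal, a within-array Z-score, was averaged across arrays of the same protein sequence and across linkers. Negative scores can be read as non-binding.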
# [2] = target: Neu5Ac(a2-3)Gal(b1-3)[Neu5Ac(a2-3)Gal(b1-4)]GlcNAc
# Outline: as §1
# [3] = target: Neu5Ac(a2-3)Gal(b1-3)[Neu5Ac(a2-6)]GalNAc
# Outline: as §1
# Neu5Ac(a2-3)Gal(b1-4)Glc = target: Neu5Ac(a2-3)Gal(b1-4)Glc
# Outline: as §1
# [4] = target: Neu5Ac(a2-3)Gal(b1-4)GlcNAc
# Outline: as §1
# [5] = target: Neu5Ac(a2-3)Gal(b1-4)GlcNAc(b1-2)Man(a1-3)[GlcNAc(b1-2)Man(b1-4)GlcNAc(b1-2)Man(a1-6)]Man(b1-4)GlcNAc(b1-4)GlcNAc
# Outline: as §1
# [6] = target: Neu5Ac(a2-3)Gal(b1-4)GlcNAc(b1-2)Man(a1-3)[Neu5Ac(a2-6)Gal(b1-4)GlcNAc(b1-2)Man(a1-6)]Man(b1-4)GlcNAc(b1-4)GlcNAc
# Outline: as §1
# [7] = target: Neu5Ac(a2-3)Gal(b1-4)GlcNAc(b1-3)Gal(b1-3)GlcNAc
# Outline: as §1
# [8] = target: Neu5Ac(a2-3)Gal(b1-4)GlcNAc(b1-3)Gal(b1-4)GlcNAc
# Outline: as §1
# [9] = target: Neu5Ac(a2-3)Gal(b1-4)GlcNAc(b1-3)Gal(b1-4)GlcNAc(b1-3)Gal(b1-4)GlcNAc
# Outline: as §1
# [10] = target: Neu5Ac(a2-3)Gal(b1-4)GlcNAc(b1-3)Gal(b1-4)[Fuc(a1-3)]GlcNAc
# Outline: as §1
# [11] = target: Neu5Ac(a2-3)Gal(b1-4)GlcNAc(b1-6)[Gal(b1-3)]GalNAc
# Outline: as §1
# [12] = target: Neu5Ac(a2-3)Gal(b1-4)GlcNAc(b1-6)[Neu5Ac(a2-3)Gal(b1-3)]GalNAc
# Outline: as §1
# [13] = target: Neu5Ac(a2-3)Gal(b1-4)GlcNAc6S
# Outline: as §1
# [14] = target: Neu5Ac(a2-3)Gal(b1-4)[Fuc(a1-3)]GlcNAc
# Outline: as §1
# [15] = target: Neu5Ac(a2-3)Gal(b1-4)[Fuc(a1-3)]GlcNAc(b1-3)Gal
# Outline: as §1
# [16] = target: Neu5Ac(a2-3)Gal(b1-4)[Fuc(a1-3)]GlcNAc(b1-3)Gal(b1-4)GlcNAc
# Outline: as §1
# [17] = target: Neu5Ac(a2-3)Gal(b1-4)[Fuc(a1-3)]GlcNAc(b1-3)Gal(b1-4)[Fuc(a1-3)]GlcNAc(b1-3)Gal(b1-4)[Fuc(a1-3)]GlcNAc
# Outline: as §1
# [18] = target: Neu5Ac(a2-3)Gal(b1-4)[Fuc(a1-3)]GlcNAc(b1-6)[Gal(b1-3)]GalNAc
# Outline: as §1
# [19] = target: Neu5Ac(a2-3)Gal(b1-4)[Fuc(a1-3)]GlcNAc6S
# Outline: as §1
# [20] = target: Neu5Ac(a2-3)Gal6S(b1-4)GlcNAc
# Outline: as §1
# [21] = target: Neu5Ac(a2-3)Gal6S(b1-4)[Fuc(a1-3)]GlcNAc
# Outline: as §1
# Neu5Ac(a2-3)GalNAc = target: Neu5Ac(a2-3)GalNAc
# Outline: as §1
# [22] = target: Neu5Ac(a2-3)GalNAc(b1-4)GlcNAc
# Outline: as §1
# [23] = target: Neu5Ac(a2-3)[GalNAc(b1-4)]Gal(b1-4)Glc
# Outline: as §1
# [24] = target: Neu5Ac(a2-3)[GalNAc(b1-4)]Gal(b1-4)GlcNAc
# Outline: as §1
# [25] = target: Neu5Ac(a2-3)[Neu5Ac(a2-6)]GalNAc
# Outline: as §1
# Neu5Ac(a2-6)Gal = target: Neu5Ac(a2-6)Gal
# Outline: as §1
# Neu5Ac(a2-6)Gal(b1-4)Glc = target: Neu5Ac(a2-6)Gal(b1-4)Glc
# Outline: as §1
# [26] = target: Neu5Ac(a2-6)Gal(b1-4)GlcNAc
# Outline: as §1
# [27] = target: Neu5Ac(a2-6)Gal(b1-4)GlcNAc(b1-2)Man(a1-3)[Gal(b1-4)GlcNAc(b1-2)Man(a1-6)]Man(b1-4)GlcNAc(b1-4)GlcNAc
# Outline: as §1
# [28] = target: Neu5Ac(a2-6)Gal(b1-4)GlcNAc(b1-2)Man(a1-3)[GlcNAc(b1-2)Man(a1-6)]Man(b1-4)GlcNAc(b1-4)GlcNAc
# Outline: as §1
# [29] = target: Neu5Ac(a2-6)Gal(b1-4)GlcNAc(b1-2)Man(a1-3)[GlcNAc(b1-2)Man(b1-4)GlcNAc(b1-2)Man(a1-6)]Man(b1-4)GlcNAc(b1-4)GlcNAc
# Outline: as §1
# [30] = target: Neu5Ac(a2-6)Gal(b1-4)GlcNAc(b1-2)Man(a1-3)[Neu5Ac(a2-6)Gal(b1-4)GlcNAc(b1-2)Man(a1-6)]Man(b1-4)GlcNAc(b1-4)GlcNAc
# Outline: as §1
# [31] = target: Neu5Ac(a2-6)Gal(b1-4)GlcNAc(b1-2)Man(a1-6)[Gal(b1-4)GlcNAc(b1-2)Man(a1-3)]Man(b1-4)GlcNAc(b1-4)GlcNAc
# Outline: as §1
# [32] = target: Neu5Ac(a2-6)Gal(b1-4)GlcNAc(b1-2)Man(a1-6)[GlcNAc(b1-2)Man(a1-3)]Man(b1-4)GlcNAc(b1-4)GlcNAc
# Outline: as §1
# [33] = target: Neu5Ac(a2-6)Gal(b1-4)GlcNAc(b1-3)Gal(b1-4)GlcNAc
# Outline: as §1
# [34] = target: Neu5Ac(a2-6)Gal(b1-4)GlcNAc(b1-3)Gal(b1-4)[Fuc(a1-3)]GlcNAc(b1-3)Gal(b1-4)[Fuc(a1-3)]GlcNAc
# Outline: as §1
# [35] = target: Neu5Ac(a2-6)Gal(b1-4)GlcNAc6S
# Outline: as §1
# Neu5Ac(a2-6)GalNAc = target: Neu5Ac(a2-6)GalNAc
# Outline: as §1
# [36] = target: Neu5Ac(a2-6)GalNAc(b1-4)GlcNAc
# Outline: as §1
# Neu5Ac(a2-8)Neu5Ac = target: Neu5Ac(a2-8)Neu5Ac
# Outline: as §1
# [37] = target: Neu5Ac(a2-8)Neu5Ac(a2-3)Gal(b1-4)Glc
# Outline: as §1
# [38] = target: Neu5Ac(a2-8)Neu5Ac(a2-3)[GalNAc(b1-4)]Gal(b1-4)Glc
# Outline: as §1
# [39] = target: Neu5Ac(a2-8)Neu5Ac(a2-8)Neu5Ac
# Outline: as §1
# [40] = target: Neu5Ac(a2-8)Neu5Ac(a2-8)Neu5Ac(a2-3)Gal(b1-4)Glc
# Outline: as §1
# [41] = target: Neu5Ac(a2-8)Neu5Ac(a2-8)Neu5Ac(a2-3)[GalNAc(b1-4)]Gal(b1-4)Glc
# Outline: as §1
# [42] = target: Neu5Ac(a2-8)Neu5Ac(a2-8)Neu5Ac(a2-8)Neu5Ac(a2-3)[GalNAc(b1-4)]Gal(b1-4)Glc
# Outline: as §1
# [43] = target: Neu5Ac(b2-6)Gal(b1-4)GlcNAc
# Outline: as §1
# Neu5Ac(b2-6)GalNAc = target: Neu5Ac(b2-6)GalNAc
# Outline: as §1
# [44] = target: Neu5Ac9Ac(a2-6)Gal(b1-4)GlcNAc
# Outline: as §1
# [45] = target: Neu5Gc(a2-3)Gal(b1-3)GlcNAc
# Outline: as §1
# [46] = target: Neu5Gc(a2-3)Gal(b1-3)[Fuc(a1-4)]GlcNAc
# Outline: as §1
# Neu5Gc(a2-3)Gal(b1-4)Glc = target: Neu5Gc(a2-3)Gal(b1-4)Glc
# Outline: as §1
# [47] = target: Neu5Gc(a2-3)Gal(b1-4)GlcNAc
# Outline: as §1
# [48] = target: Neu5Gc(a2-3)Gal(b1-4)[Fuc(a1-3)]GlcNAc
# Outline: as §1
# [49] = target: Neu5Gc(a2-6)Gal(b1-4)GlcNAc
# Outline: as §1
# Neu5Gc(a2-6)GalNAc = target: Neu5Gc(a2-6)GalNAc
# Outline: as §1
# [50] = target: Neu5Gc(b2-6)Gal(b1-4)GlcNAc
# Outline: as §1
binder,measurement,setting,value
"CBM32-4 (Clostridium perfringens), P26831 (protein) MGSSHHHHHHSSGLVPRGSHMASVYEPSLVDAYVGDDGAKKAVDGDLKTRVKFLGAPSTGDTIVYDLGQEILVDNLKYVVLDTEVDHVRDGKIQLSLDGETWTDAINIGDGVENGVDDMFSTPLKNGYKHGNQSGGIVPIDSAYVEGDNLNQKARYVRILFTAPYRHRWTVINELMINNGEYIPTVNDPT",glycan array binding signal (z-score),[1],-0.427
same,glycan array binding signal (z-score),[2],-0.397
same,glycan array binding signal (z-score),[3],-0.265
same,glycan array binding signal (z-score),Neu5Ac(a2-3)Gal(b1-4)Glc,-0.183
same,glycan array binding signal (z-score),[4],-0.421
same,glycan array binding signal (z-score),[5],-0.325
same,glycan array binding signal (z-score),[6],-0.306
same,glycan array binding signal (z-score),[7],-0.38
same,glycan array binding signal (z-score),[8],-0.287
same,glycan array binding signal (z-score),[9],-0.386
same,glycan array binding signal (z-score),[10],-0.514
same,glycan array binding signal (z-score),[11],-0.111
same,glycan array binding signal (z-score),[12],-0.387
same,glycan array binding signal (z-score),[13],-0.013
same,glycan array binding signal (z-score),[14],-0.394
same,glycan array binding signal (z-score),[15],-0.572
same,glycan array binding signal (z-score),[16],0.105
same,glycan array binding signal (z-score),[17],-0.457
same,glycan array binding signal (z-score),[18],-0.201
same,glycan array binding signal (z-score),[19],-0.286
same,glycan array binding signal (z-score),[20],-0.009
same,glycan array binding signal (z-score),[21],0.279
same,glycan array binding signal (z-score),Neu5Ac(a2-3)GalNAc,-0.166
same,glycan array binding signal (z-score),[22],-0.527
same,glycan array binding signal (z-score),[23],-0.412
same,glycan array binding signal (z-score),[24],-0.461
same,glycan array binding signal (z-score),[25],0.201
same,glycan array binding signal (z-score),Neu5Ac(a2-6)Gal,-0.431
same,glycan array binding signal (z-score),Neu5Ac(a2-6)Gal(b1-4)Glc,-0.291
same,glycan array binding signal (z-score),[26],-0.295
same,glycan array binding signal (z-score),[27],-0.402
same,glycan array binding signal (z-score),[28],-0.426
same,glycan array binding signal (z-score),[29],-0.48
same,glycan array binding signal (z-score),[30],-0.476
same,glycan array binding signal (z-score),[31],-0.336
same,glycan array binding signal (z-score),[32],-0.523
same,glycan array binding signal (z-score),[33],-0.348
same,glycan array binding signal (z-score),[34],-0.302
same,glycan array binding signal (z-score),[35],0.013
same,glycan array binding signal (z-score),Neu5Ac(a2-6)GalNAc,-0.363
same,glycan array binding signal (z-score),[36],-0.215
same,glycan array binding signal (z-score),Neu5Ac(a2-8)Neu5Ac,0.241
same,glycan array binding signal (z-score),[37],-0.415
same,glycan array binding signal (z-score),[38],-0.153
same,glycan array binding signal (z-score),[39],-0.281
same,glycan array binding signal (z-score),[40],-0.286
same,glycan array binding signal (z-score),[41],-0.284
same,glycan array binding signal (z-score),[42],-0.481
same,glycan array binding signal (z-score),[43],-0.456
same,glycan array binding signal (z-score),Neu5Ac(b2-6)GalNAc,-0.38
same,glycan array binding signal (z-score),[44],-0.446
same,glycan array binding signal (z-score),[45],-0.474
same,glycan array binding signal (z-score),[46],-0.542
same,glycan array binding signal (z-score),Neu5Gc(a2-3)Gal(b1-4)Glc,-0.272
same,glycan array binding signal (z-score),[47],-0.402
same,glycan array binding signal (z-score),[48],-0.348
same,glycan array binding signal (z-score),[49],-0.448
same,glycan array binding signal (z-score),Neu5Gc(a2-6)GalNAc,-0.386
same,glycan array binding signal (z-score),[50],-0.438
